Experimental data published in PubChem BioAssay AID602332 (National Center for Advancing Translational Sciences (NCATS), 2012).
Where “and” joins values, the source holds several entries; their conditions need not be identical. Identical values can stand only once. Screen size: about 420,000 compounds; about 75 (0.02%) were called active. Calls follow the shape of the dose curve; as a rule, active = well fitted activation curve with a large enough effect; inconclusive = small, poorly fitted or top-dose-only effect; inactive = no such curve, though single readings can be large or run the other way. Only a part is listed here, and it is no random draw. The source holds several records for some structures; these can differ, active in one and inactive in another.

assay: qHTS for Inducers of the Endoplasmic Reticulum Stress Response (ERSR) in Human Glioma: qHTS; conditions: U87-MG GRP78 promoter luciferase reporter, 16 h; activation: hits give high values; also: nearly all actives have a fitted effect of over 35% in size; as to activation: % of control where 0% means no effect
Method in brief: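 Stably transfected U87-MG human glioma cells carrying a GRP78-based luminescent sensor were seeded at 1000 cells/well, pin-dosed with compounds and incubated 16 h. Luciferase reagent was then added, and end-point luminescence was read after 10 min at room temperature.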
Potency is read from the fitted curve at half-maximal effect.

activation, inactive:
CCN(CC)CCCNC(=O)CSc1c2c(nc3cc(Cl)ccc13)CCCC2 -11.5% and -15.6%
CC(C)(C)n1ncc2c(=O)n(CC(=O)NCc3ccccc3)cnc21 -12.5%
C[C@H]([C@H](C)N1CC(=O)NC(=O)C1)N1CC(=O)NC(=O)C1 17.3%
CCS(=O)(=O)c1ncc(Cl)c(C(=O)Nc2ccc(S(=O)(=O)N3CCCC(C)C3)cc2)n1 (stereo not given) -18.6%
N/C(=N\OC(=O)c1ccc2ccccc2c1)c1ccccn1 -14.1%
CN(C)S(=O)(=O)n1cc(/C=C(\NC(=O)c2ccccc2Cl)C(=O)NCCCn2ccnc2)c2ccccc21 -4.52%
O=C(/C=C/c1ccc(O)c(O)c1)O[C@@H]1C[C@](O)(C(=O)O)C[C@@H](O)[C@H]1O -3.72%
Cc1ccccc1C(=O)O/N=C(\N)c1ccccc1 -16%
N.N.N.N.N.N.N.N.N.N.N.N.N.N.O.O.[Ru+4].[Ru+5].[Ru+5] -10.8%
CN[C@H]1CC[C@@H](c2ccc(Cl)c(Cl)c2)c2ccccc21 -6.63% [middle of 4 runs]
CCCCN(C)C(=O)c1cc2cc3ccc(OC)cc3nc2s1 -13.7%
CC(C)(C)c1cc(O)c(C(C)(C)C)cc1O 2.38%
COc1cc(/C=N/NC(=O)Cn2nc([N+](=O)[O-])cc2C)cc(Br)c1OCc1ccccc1 -12.6%
CCCCCCN(C(=O)CCl)c1ccccc1 -15.3%
COc1cc2nc(Nc3ccc(F)cc3)nc(N)c2cc1OC 2.86%
CCCCC(CC)CN=C(N)NC(N)=NCCCCCCN=C(N)NC(N)=NCC(CC)CCCC (stereo not given) -12.7% and -11.7%
COc1ccc(Cl)cc1C(=O)NCCc1ccc(S(=O)(=O)NC(=O)NC2CCCCC2)cc1 -4.12% [middle of 7 runs]
C=CC[C@@H](CC(=O)OC(C)(C)C)C(=O)OC[C@@H]1CCCN1C(=O)[C@@H](CC=C)CC(=O)N[C@H](CO)Cc1ccccc1 -4.24%
CC(=O)c1c(C)[nH]c(C(=O)Nc2ccc(C)cn2)c1C -15.5%
O=C(Oc1ccc(-c2nc(-c3ccccn3)no2)cc1)c1ccccc1 -14.8%
CC1(C)C(=O)C=C[C@@]2(C)C1C=C[C@@]1(C)C2CC[C@@]2(C)C(c3ccoc3)OC(=O)C3OC312 (stereo not given in full) -12.6%
Cc1ccccc1C(=O)N1CCN(c2ccc(NC(=O)c3ccco3)cc2Cl)CC1 -13.4%
CC(=O)OC[C@H]1O[C@@H](Sc2cccc3cccnc23)[C@H](OC(C)=O)[C@@H](OC(C)=O)[C@H]1OC(C)=O 5.44%
CCc1ccc(/C=C/C(=O)c2c(C)cc(C)[nH]c2=O)cc1 -15.3%
COc1ccc(/C=C/c2nc3ccccc3c(=O)o2)cc1 -18.8%
OC(CNCC1CCCO1)Cn1c2ccc(Cl)cc2c2cc(Cl)ccc21 (stereo not given) -17.1%
Cc1ccc(C(=O)CSc2nnnn2C(C)C)c(C)c1 -17.2%
CN(C)CCCN(C(=O)c1cc(-c2cccs2)nc2ccccc12)c1nc2ccc(F)cc2s1 -17.4%
O=C(COc1ccc(CO)cc1Cl)Nc1ccc(F)cc1 -13.4%
CCOc1ccc(C(=O)Nc2nnc(SCC(=O)NCC3CCCO3)s2)cc1 (stereo not given) -15.6%
COc1ccc(Cl)cc1C(=O)Nc1nc2ccccc2[nH]1 -16.1%
NS(=O)(=O)c1ccc(N2N=C(c3ccc(Br)cc3)CC2c2ccc(F)cc2)cc1 (stereo not given) -17.4%
O=C(O)c1ccc2nc(-c3ccccc3)sc2c1 -15%
COc1ccc(Br)cc1[C@H]1[C@H]2C=CC[C@@H](C)[C@@H]2C(=O)N1Cc1ccccc1 -1.9%
CCOc1ccc2nc3sc(C(=O)N4CCOCC4)c(N)c3cc2c1 -11.3%
CC(NC(=O)/C(C#N)=C/c1ccc(Cl)c([N+](=O)[O-])c1)c1ccccc1 (stereo not given) -14%
C=CC[C@@H](CC(=O)OC(C)(C)C)C(=O)OC[C@@H]1CCCN1C(=O)[C@@H](CC=C)CC(=O)N[C@@H](CO)Cc1ccccc1 -1.44%
C/C(N)=C(/C#N)C(=O)COC(=O)c1cc(C)n(-c2ccc(F)cc2)c1C 4.04%
Nc1ccc2c(c1)C(=O)C(=O)c1ccccc1-2 -15%
Cc1ccc(NC(=O)C2CCCN2S(=O)(=O)c2cccc3cccnc23)c(C)c1 (stereo not given) -2.21%
CCn1ccc(C(=O)Nc2ccc3c(c2)CCC3)n1 -12%
Cc1nc([N+](=O)[O-])c(Br)n1CC(=O)c1ccc(Br)cc1 -16.2%
O=C(NC1CCCCCC1)c1cccc(N2CCCC2=O)c1 -12.6%
O=C(CSc1ccccn1)Nc1nonc1[N+](=O)[O-] -14.8%
CCOc1ccc(N2C(=O)CC(Sc3nnnn3-c3ccccc3)C2=O)cc1 (stereo not given) -16.4%
O=C(CN1C(=O)c2ccccc2S1(=O)=O)N1CCc2ccccc21 -14.7%
O=S(=O)(Nc1cccc2cccnc12)c1ccccc1 11.5%
COc1cc(NC(=O)Cn2ncc(Cl)c(Cl)c2=O)c(C)cc1[N+](=O)[O-] -14.2%
O=C(Nc1nc2cc3c(cc2s1)OCCO3)c1cccs1 -16.6%
CC1(COc2ccc(CC3SC(=O)NC3=O)cc2)CCCCC1 (stereo not given) 3.79% and -0.164% and 5.82%

Potency, active:
N#C/C(=C\c1ccc(O)c(O)c1)C(=O)NCc1ccccc1 25.1 µM
C#C[C@]1(O)CC[C@H]2[C@@H]3CCC4=CC(=O)CC[C@@H]4[C@H]3CC[C@@]21CC 20 µM
O=C1CC(c2ccco2)CC2=C1C1c3ccccc3C(=O)N1c1ccccc1N2 (stereo not given) 28.2 µM
O=C(Nc1cc(N2CCOCC2)ncn1)c1ccccc1 35.5 µM
CN1CCN2c3ccccc3Cc3ccccc3C2C1 (stereo not given) 35.5 µM
